The densities may have been worked out from excess volumes.
Assay: xn = mol fraction of the nth substance listed
Settings: 100 kPa

CCCC[n+]1ccn(C)c1.COS(=O)(=O)[O-] + CO
Settings	mass density [kg/m3]
283.15 K, x2 = 0	1217.2
283.15 K, x2 = 0.1482	1205.1
283.15 K, x2 = 0.4684	1161.8
283.15 K, x2 = 0.5833	1135.7
283.15 K, x2 = 0.6451	1118.1
283.15 K, x2 = 0.708	1092.9
283.15 K, x2 = 0.7535	1072.7
283.15 K, x2 = 0.8903	972.4
288.15 K, x2 = 0	1214
288.15 K, x2 = 0.1482	1201.6
288.15 K, x2 = 0.2877	1186
288.15 K, x2 = 0.4684	1158.1
288.15 K, x2 = 0.5833	1132.1
288.15 K, x2 = 0.6451	1114.5
288.15 K, x2 = 0.708	1089.4
288.15 K, x2 = 0.7535	1068.7
288.15 K, x2 = 0.946	898.6
293.15 K, x2 = 0	1210.8
293.15 K, x2 = 0.1482	1198
293.15 K, x2 = 0.395	1168.1
293.15 K, x2 = 0.4684	1154.4
293.15 K, x2 = 0.6451	1110.9
293.15 K, x2 = 0.708	1085.5
293.15 K, x2 = 0.7535	1064.8
293.15 K, x2 = 0.7941	1041.1
293.15 K, x2 = 0.8903	964.2
293.15 K, x2 = 0.946	894.1
298.15 K, x2 = 0	1207.7
298.15 K, x2 = 0.2877	1179
298.15 K, x2 = 0.395	1164.7
298.15 K, x2 = 0.4684	1151.3
298.15 K, x2 = 0.5833	1125.1
298.15 K, x2 = 0.6451	1107.3
298.15 K, x2 = 0.7535	1061.2
298.15 K, x2 = 0.7941	1037.5
298.15 K, x2 = 0.8903	960.1
303.15 K, x2 = 0	1204.5
303.15 K, x2 = 0.1482	1191.5
303.15 K, x2 = 0.2877	1175.8
303.15 K, x2 = 0.395	1161.4
303.15 K, x2 = 0.5833	1121.4
303.15 K, x2 = 0.708	1078.4
303.15 K, x2 = 0.7535	1057.6
303.15 K, x2 = 0.7941	1033.7
303.15 K, x2 = 0.8903	956.3
303.15 K, x2 = 0.946	885.7
308.15 K, x2 = 0.2877	1172.2
308.15 K, x2 = 0.395	1157.8
308.15 K, x2 = 0.4684	1144.1
308.15 K, x2 = 0.5833	1117.7
308.15 K, x2 = 0.708	1074.7
308.15 K, x2 = 0.7535	1053.7
308.15 K, x2 = 0.7941	1029.8
308.15 K, x2 = 0.8903	952
308.15 K, x2 = 0.946	881.3
313.15 K, x2 = 0	1197.8
313.15 K, x2 = 0.4684	1140.6
313.15 K, x2 = 0.6451	1096.5
313.15 K, x2 = 0.708	1070.9
313.15 K, x2 = 0.7535	1050
313.15 K, x2 = 0.7941	1026.1
313.15 K, x2 = 0.8903	948.1
313.15 K, x2 = 0.946	876.9
318.15 K, x2 = 0	1194.5
318.15 K, x2 = 0.1482	1180.9
318.15 K, x2 = 0.2877	1165.2
318.15 K, x2 = 0.395	1150.7
318.15 K, x2 = 0.4684	1136.9
318.15 K, x2 = 0.5833	1110.3
318.15 K, x2 = 0.6451	1092.8
318.15 K, x2 = 0.946	872.5
323.15 K, x2 = 0	1191.5
323.15 K, x2 = 0.1482	1177.8
323.15 K, x2 = 0.2877	1162.2
323.15 K, x2 = 0.395	1147.5
323.15 K, x2 = 0.4684	1133.7
323.15 K, x2 = 0.708	1063.7
323.15 K, x2 = 0.7535	1042.4
323.15 K, x2 = 0.7941	1018.4
323.15 K, x2 = 0.946	868.4
328.15 K, x2 = 0	1188.3
328.15 K, x2 = 0.1482	1174.4
328.15 K, x2 = 0.395	1144.1
328.15 K, x2 = 0.4684	1130.1
328.15 K, x2 = 0.5833	1103.5
328.15 K, x2 = 0.6451	1085.8
328.15 K, x2 = 0.708	1060.1
328.15 K, x2 = 0.7535	1038.7
328.15 K, x2 = 0.7941	1014.6
328.15 K, x2 = 0.8903	935.7
328.15 K, x2 = 0.946	863.9
333.15 K, x2 = 0	1185
333.15 K, x2 = 0.1482	1171.2
333.15 K, x2 = 0.2877	1155.2
333.15 K, x2 = 0.395	1140.7
333.15 K, x2 = 0.4684	1126.5
333.15 K, x2 = 0.5833	1100
333.15 K, x2 = 0.708	1056.3
333.15 K, x2 = 0.7535	1035
333.15 K, x2 = 0.7941	1010.8
333.15 K, x2 = 0.8903	931.5
333.15 K, x2 = 0.946	859.4

CO + CCCC[n+]1ccn(C)c1.COS(=O)(=O)[O-]
x1 = 1
Settings	mass density [kg/m3]
283.15 K	800.4
288.15 K	795.8
293.15 K	791.2
298.15 K	786.4
303.15 K	781.7
308.15 K	777.1
313.15 K	772.4
318.15 K	767.5
323.15 K	763
328.15 K	758.1
333.15 K	753.2
